Data on 41 compounds can be found in ChEMBL document CHEMBL5308541, “MAIP: An Open-Source Tool to Enrich High-Throughput Screening Output and Identify Novel, Druglike Molecules with Antimalarial Activity” (ACS Med Chem Lett, 2023).

The campaign covered roughly 150,000 compounds. About 540 (0.36%) showed an effect of 50% or more. The list shows a part of the results.

Usually % Inhibition stands for the drop in the measured response relative to a control, in per cent.

The test has as its system Plasmodium falciparum. Kind of test: Primary screen in NF54 nanoGlo assay, in single point, at 2uM, 72h; a lower Z score goes with more inhibition. The format is functional, Erythrocyte. To be noted: timepoint 72 hour.
As to `CC(C)(O)C#Cc1ccc(C(=O)NC[C@H]2CC(=O)N(C3CC3)C2)o1`, the “% Inhibition” value was found to be 0% and the Z score turned out to be 0.05.
On the same counts, the results for `C[C@]1(c2ccc(Cl)cn2)Oc2cccc(C3CCN(Cc4nc5ccc(C(=O)O)cc5n4C[C@@H]4CCO4)CC3)c2O1.NC(CO)(CO)CO` [LOTIGLIPRON TROMETHAMINE] are -2% and 0.37.
As for `Cc1ccc2nc(-c3cccc(NC(=O)c4ccc(OC(F)(F)F)c(Cl)c4)c3)[nH]c2n1`, the “% Inhibition” value came out at 57% and the Z score is -12.27.
`CCN(C(=O)CN[C@](C)(CNC(=O)OC(C)(C)C)CC(C)C)C1CC1`: the “% Inhibition” value stood at 8% and the Z score is on record as -1.73.
For `O=C(O)CC1(NC(=O)CCn2cnnc2)CCCCC1`, in that order: -13% and 2.31.
On the same counts, the results for `CCOc1cccc(C2CC2Nc2cc(-n3ccnc3)ncn2)c1` (configuration not stated) are 7% and -1.31.
For `CNC(=O)c1cc2cc(N[C@H]3CCN(C4CCOCC4)C3=O)ccc2[nH]1`, in that order: -8% and 1.64.
Consider `CN(Cc1ccccc1)c1nc(-c2c[nH]c3ccccc23)cs1`, for which the “% Inhibition” value stood at 5% and the Z score is recorded as -0.96.
Consider `C(=Cc1nc2ccccc2o1)c1ccc(OCCN2CCCC2)cc1`, for which the “% Inhibition” value was determined as 6% and the Z score is reported as -0.87.
Turning to `c1cnc(NC2COCC2N2CCCC2)c(-c2ncon2)c1` (configuration not stated), the “% Inhibition” value was 2% and the Z score is given as -0.42.
On the same counts, the results for `O[C@H]1CCN(c2ccnc(NCC3(c4ccc(F)cc4)CCCC3)n2)C1` are 4% and -0.64.
On the same counts, the results for `COCCN1CCN(c2cc(Oc3cccc(F)c3)ncn2)CC1` are 10% and -1.76.
For `CN(C)c1cccc(Oc2ccc(C#N)cc2)c1`, the “% Inhibition” value is listed as -7% and the Z score is listed as 1.37.
For `CN(C)C1CCN(C(C)(C)CNCc2cccc3[nH]ncc23)CC1`, in that order: -2% and 0.34.
In the case of `COc1cc(OC)c2nc(NC[C@@H](c3cccnc3)N3CCCCC3)cc(C)c2c1`, the “% Inhibition” value is on record as -3% and the Z score is listed as 0.38.
On the same counts, the results for `N#Cc1ccccc1N1CCN(C2CCN(c3ccc(F)c(F)c3)CC2)CC1` are -4% and 0.64.
On the same counts, the results for `COCc1cc(CNC(=O)N2CCC[C@H](Cc3nc4ccccc4[nH]3)C2)[nH]n1` are -2% and 0.38.
On the same counts, the results for `CCCCC[C@@H]1NC(=O)N(c2nnn(Cc3noc(C)n3)c2C)C1=O` are -3% and 0.69.
In the case of `Cc1cc(NC(=O)c2cc(-c3cccnc3)on2)cc(N2CCN(C)CC2)c1`, the “% Inhibition” value is recorded as -9% and the Z score came out at 1.62.
In the case of `Cc1ccnc(Nc2cc(N3CCN(C(=O)[C@@H]4CCC(=O)N4)CC3)nc(C)n2)c1`, the “% Inhibition” value is recorded as -4% and the Z score is 0.77.
On the same counts, the results for `O=C(NC1(CN2CCCCC2)CCCCC1)N1CCN(c2ccncc2)CC1` are 2% and -0.27.
`c1csc(CCNc2ncnc3c2CCN([C@H]2CCCNC2)CC3)c1`: the “% Inhibition” value is given as -4% and the Z score was found to be 0.75.
On the same counts, the results for `CN(Cc1cc(-c2ccncc2)no1)C(=O)N[C@H]1CCCN(C2CCCC2)C1` are 0% and -0.08.
For `CN1CCC2(CC1)CN(Cc1cccc3cnccc13)CCCN2C`, the “% Inhibition” value was -7% and the Z score was determined as 1.25.
On to `COC1CCN(CCNc2cncc(OCC(C)C)n2)CC1`, for which the “% Inhibition” value is given as -6% and the Z score is given as 1.27.
On the same counts, the results for `Cc1oc2ccccc2c1CNC(=O)N[C@H]1CCCCNC1=O` are 2% and -0.36.
Regarding `Cc1nc(CNC(=O)N2CC(Oc3ccc(F)cc3)C2)nc2c1CCCC2`, the “% Inhibition” value was -12% and the Z score is recorded as 2.01.
On the same counts, the results for `CN1C[C@@H](Nc2nc(N)nc3c2CCCC3)[C@H](c2cncn2C)C1` are 9% and -1.29.
Turning to `O=C(OC1CCN(c2nccs2)C1)N1CCC(n2cc(C3CC3)nn2)C1` (configuration not stated), the “% Inhibition” value stood at 8% and the Z score is -1.4.
On the same counts, the results for `O=C(c1ccc2[nH]ccc2c1)N1CCC[C@H]1C1(O)CC1` are -5% and 0.99.
For `Cc1cc(C)cc([C@@H](O)CNCc2ccc3c[nH]nc3c2)c1`, in that order: 3% and -0.57.
`Cc1cc(N2CCC(N3CCN(CCO)CC3)CC2)c2cc(F)ccc2n1`: the “% Inhibition” value is on record as -12% and the Z score is given as 2.6.
As to `O=C(NC1CC2CCC(C1)N2Cc1ccccc1)N1CCC(N2CCNCC2)C1` (configuration not stated), the “% Inhibition” value is recorded as -16% and the Z score came to 2.81.
With `Cc1ccc(-c2cccc3c(C(=O)NCCCN4CCC(N5CCCCC5)CC4)cc(C)nc23)cc1`, the “% Inhibition” value was determined as 98% and the Z score is listed as -16.9.
`Fc1ccc(N2CC[C@H](CNc3ncnc4ccncc34)C2)cc1F`: the “% Inhibition” value is reported as -5% and the Z score is recorded as 0.79.
For the compound `C[C@H]1CCCCN1CCC1CCN(C(=O)Cc2ccc3[nH]ncc3c2)CC1`, the “% Inhibition” value is on record as -9% and the Z score came to 1.33.
On to `O=C1NC(=O)C2(CCC(NC(=O)[C@@H]3COCCN3CC(F)F)CC2)N1` (some centres not stated), for which the “% Inhibition” value is given as -1% and the Z score stood at 0.23.
Take `N#Cc1ccc(NC2COCC2N2CCCC2)nc1` (configuration not stated): the “% Inhibition” value was -3% and the Z score is given as 0.66.
In the case of `CC(C)[C@H](CO)N(C)C(=O)c1ccc(-c2ccc(O)cc2F)cc1`, the “% Inhibition” value is listed as -8% and the Z score was found to be 1.34.
For `CN1CCN(c2cc(N3CCN(C)CC3)c3ccncc3n2)CC1`, in that order: -2% and 0.41.
Consider `CCc1cccc(N2CCC(Nc3cc(C)nc(-c4ccncc4)n3)CC2)c1`, for which the “% Inhibition” value was -2% and the Z score came to 0.36.
